# This is one part of the list.
# Experiments:
# Assay in all cases: glycan array binding signal (z-score within array); higher = stronger binding
# Details in all cases: glycan notation: IUPAC condensed, linker removed; mutation: N224Q
# [1] = biological target: Glc(b1-4)Glc
# How it was run: (§1)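 From the Consortium for Functional Glycomics database, 3228 arrays were curated, keeping only those whose protein sequence was available. Binding is given as a within-array Z-score averaged across arrays sharing a protein sequence and across linkers. Negative Z-scores can be read as non-binding.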
# [2] = biological target: Glc(b1-6)Glc
# How it was run: as §1
# [3] = biological target: GlcA(b1-3)Gal
# How it was run: as §1
# [4] = biological target: GlcA(b1-3)GlcNAc
# How it was run: as §1
# [5] = biological target: GlcA(b1-6)Gal
# How it was run: as §1
# [6] = biological target: GlcA3S(b1-3)Gal(b1-4)GlcNAc(b1-2)Man
# How it was run: as §1
# [7] = biological target: GlcA3S(b1-3)Gal(b1-4)GlcNAc(b1-3)Gal(b1-4)Glc
# How it was run: as §1
# [8] = biological target: GlcNAc(a1-3)Gal(b1-4)GlcNAc
# How it was run: as §1
# [9] = biological target: GlcNAc(a1-4)Gal(b1-3)GlcNAc
# How it was run: as §1
# [10] = biological target: GlcNAc(a1-4)Gal(b1-4)GalNAc
# How it was run: as §1
# [11] = biological target: GlcNAc(a1-4)Gal(b1-4)GlcNAc
# How it was run: as §1
# [12] = biological target: GlcNAc(a1-4)Gal(b1-4)GlcNAc(b1-3)Gal(b1-4)Glc
# How it was run: as §1
# [13] = biological target: GlcNAc(a1-4)Gal(b1-4)GlcNAc(b1-3)Gal(b1-4)GlcNAc
# How it was run: as §1
# [14] = biological target: GlcNAc(a1-4)Gal(b1-4)GlcNAc(b1-3)Gal(b1-4)GlcNAc(b1-3)Gal(b1-4)GlcNAc
# How it was run: as §1
# [15] = biological target: GlcNAc(a1-4)Gal(b1-4)GlcNAc(b1-3)Gal(b1-4)[Fuc(a1-3)]GlcNAc(b1-3)Gal(b1-4)[Fuc(a1-3)]GlcNAc
# How it was run: as §1
# [16] = biological target: GlcNAc(a1-6)Gal(b1-4)GlcNAc
# How it was run: as §1
# [17] = biological target: GlcNAc(b1-2)Gal(b1-3)GalNAc
# How it was run: as §1
# [18] = biological target: GlcNAc(b1-2)Man(a1-3)[GlcNAc(b1-2)Man(a1-6)]Man(b1-4)GlcNAc(b1-4)GlcNAc
# How it was run: as §1
# [19] = biological target: GlcNAc(b1-2)Man(a1-3)[GlcNAc(b1-2)Man(a1-6)]Man(b1-4)GlcNAc(b1-4)[Fuc(a1-6)]GlcNAc
# How it was run: as §1
# [20] = biological target: GlcNAc(b1-2)Man(a1-3)[GlcNAc(b1-4)][GlcNAc(b1-2)Man(a1-6)]Man(b1-4)GlcNAc(b1-4)GlcNAc
# How it was run: as §1
# [21] = biological target: GlcNAc(b1-2)Man(a1-3)[GlcNAc(b1-4)][GlcNAc(b1-2)Man(a1-6)]Man(b1-4)GlcNAc(b1-4)[Fuc(a1-6)]GlcNAc
# How it was run: as §1
# [22] = biological target: GlcNAc(b1-2)[GlcNAc(b1-4)]Man(a1-3)[GlcNAc(b1-2)Man(a1-6)]Man(b1-4)GlcNAc(b1-4)GlcNAc
# How it was run: as §1
# [23] = biological target: GlcNAc(b1-2)[GlcNAc(b1-4)]Man(a1-3)[GlcNAc(b1-4)][GlcNAc(b1-2)Man(a1-6)]Man(b1-4)GlcNAc(b1-4)GlcNAc
# How it was run: as §1
# [24] = biological target: GlcNAc(b1-2)[GlcNAc(b1-4)]Man(a1-3)[GlcNAc(b1-4)][GlcNAc(b1-2)[GlcNAc(b1-6)]Man(a1-6)]Man(b1-4)GlcNAc(b1-4)GlcNAc
# How it was run: as §1
# [25] = biological target: GlcNAc(b1-2)[GlcNAc(b1-4)]Man(a1-3)[GlcNAc(b1-4)][GlcNAc(b1-2)[GlcNAc(b1-6)]Man(a1-6)]Man(b1-4)GlcNAc(b1-4)[Fuc(a1-6)]GlcNAc
# How it was run: as §1
# [26] = biological target: GlcNAc(b1-2)[GlcNAc(b1-6)]Man(a1-6)[GlcNAc(b1-2)Man(a1-3)]Man(b1-4)GlcNAc(b1-4)GlcNAc
# How it was run: as §1
# [27] = biological target: GlcNAc(b1-2)[GlcNAc(b1-6)]Man(a1-6)[GlcNAc(b1-2)Man(a1-3)]Man(b1-4)GlcNAc(b1-4)[Fuc(a1-6)]GlcNAc
# How it was run: as §1
# [28] = biological target: GlcNAc(b1-2)[GlcNAc(b1-6)]Man(a1-6)[GlcNAc(b1-4)][GlcNAc(b1-2)Man(a1-3)]Man(b1-4)GlcNAc(b1-4)GlcNAc
# How it was run: as §1
# [29] = biological target: GlcNAc(b1-3)Fuc
# How it was run: as §1
# [30] = biological target: GlcNAc(b1-3)Gal
# How it was run: as §1
# [31] = biological target: GlcNAc(b1-3)Gal(b1-3)GalNAc
# How it was run: as §1
# [32] = biological target: GlcNAc(b1-3)Gal(b1-4)Glc
# How it was run: as §1
# [33] = biological target: GlcNAc(b1-3)Gal(b1-4)GlcNAc
# How it was run: as §1
# [34] = biological target: GlcNAc(b1-3)Gal(b1-4)GlcNAc(b1-2)Man(a1-3)[GlcNAc(b1-3)Gal(b1-4)GlcNAc(b1-2)Man(a1-6)]Man(b1-4)GlcNAc(b1-4)GlcNAc
# How it was run: as §1
# [35] = biological target: GlcNAc(b1-3)Gal(b1-4)GlcNAc(b1-2)Man(a1-3)[GlcNAc(b1-3)Gal(b1-4)GlcNAc(b1-2)Man(a1-6)]Man(b1-4)GlcNAc(b1-4)[Fuc(a1-6)]GlcNAc
# How it was run: as §1
# [36] = biological target: GlcNAc(b1-3)Gal(b1-4)GlcNAc(b1-2)[GlcNAc(b1-3)Gal(b1-4)GlcNAc(b1-6)]Man(a1-6)[GlcNAc(b1-3)Gal(b1-4)GlcNAc(b1-2)Man(a1-3)]Man(b1-4)GlcNAc(b1-4)GlcNAc
# How it was run: as §1
# [37] = biological target: GlcNAc(b1-3)Gal(b1-4)GlcNAc(b1-3)Gal(b1-4)GlcNAc
# How it was run: as §1
binder,measurement,setting,value
AAL (Aleuria aurantia) (protein) MPTEFLYTSKIAAISWAATGGRQQRVYFQDLNGKIREAQRGGDNPWTGGSSQNVIGEAKLFSPLAAVTWKSAQGIQIRVYCVNKDNILSEFVYDGSKWITGQLGSVGVKVGSNSKLAALQWGGSESAPPNIRVYYQKSNGSGSSIHEYVWSGKWTAGASFGSTVPGTGIGATAIGPGRLRIYYQATDNKIREHCWDSNSWYVGGFSASASAGVSIAAISWGSTPQIRVYWQKGREELYEAAYGGSWNTPGQIKDASRPTPSLPDTFIAANSSGNIDISVFFQASGVSLQQWQWISGKGWSIGAVVPTGTPAGW,glycan array binding signal (z-score),[1],-0.311
same,glycan array binding signal (z-score),[2],-0.312
same,glycan array binding signal (z-score),[3],-0.314
same,glycan array binding signal (z-score),[4],-0.319
same,glycan array binding signal (z-score),[5],-0.317
same,glycan array binding signal (z-score),[6],-0.307
same,glycan array binding signal (z-score),[7],-0.313
same,glycan array binding signal (z-score),[8],-0.323
same,glycan array binding signal (z-score),[9],-0.329
same,glycan array binding signal (z-score),[10],-0.318
same,glycan array binding signal (z-score),[11],-0.318
same,glycan array binding signal (z-score),[12],-0.318
same,glycan array binding signal (z-score),[13],-0.3
same,glycan array binding signal (z-score),[14],-0.314
same,glycan array binding signal (z-score),[15],0.443
same,glycan array binding signal (z-score),[16],-0.334
same,glycan array binding signal (z-score),[17],-0.326
same,glycan array binding signal (z-score),[18],-0.31
same,glycan array binding signal (z-score),[19],-0.265
same,glycan array binding signal (z-score),[20],-0.308
same,glycan array binding signal (z-score),[21],0.193
same,glycan array binding signal (z-score),[22],-0.312
same,glycan array binding signal (z-score),[23],-0.312
same,glycan array binding signal (z-score),[24],-0.314
same,glycan array binding signal (z-score),[25],-0.017
same,glycan array binding signal (z-score),[26],-0.297
same,glycan array binding signal (z-score),[27],0.848
same,glycan array binding signal (z-score),[28],-0.315
same,glycan array binding signal (z-score),[29],2.49
same,glycan array binding signal (z-score),[30],-0.318
same,glycan array binding signal (z-score),[31],-0.311
same,glycan array binding signal (z-score),[32],-0.317
same,glycan array binding signal (z-score),[33],-0.321
same,glycan array binding signal (z-score),[34],-0.276
same,glycan array binding signal (z-score),[35],2.41
same,glycan array binding signal (z-score),[36],-0.242
same,glycan array binding signal (z-score),[37],-0.318

# Reference: the supplement of paper PMC8728848
